First the molecules themselves.
B1: LINE1-mini (parent)
chain: GGCAGAGCUCAACACAGCGUGGCAAAGUGGCUGUGGCUAGACUGCC

Read counts are not given, so values of variants with three or more changes are uncertain.

This data set covers variants of B1. Kind of data set: self-cleavage, relative activity (ratio to wild type); higher = more cleavage; in vitro, sequencing; the parent is a self-cleaving ribozyme.
Turning to U9C C10U C15A G40C C46G, the self-cleavage amounted to 0.02.

Take U9C A12C U34G C42A: the self-cleavage came out at 0.02.

For the variant C8U G33U G40U, the self-cleavage is 0.09.

C8U G19A G36A: the self-cleavage worked out at 0.66.

On to C8U G19U G35U C37A, for which the self-cleavage worked out at 0.05.

Consider U9C A24G A39C, for which the self-cleavage stood at 0.

As for C8U G17C C31A G33C, the self-cleavage stood at 0.06.

For the variant C8U U9A C10U A11G C37U, the self-cleavage turned out to be 0.04.

Turning to C8U C13U C15A G33U A39C, the self-cleavage was found to be 0.07.

On to U9C A26G C45G, for which the self-cleavage was determined as 0.02.

For C8U U34A G35U C42U, the self-cleavage was determined as 0.01.

On to C8U G21A C23A U28A G35C, for which the self-cleavage was determined as 0.33.

Consider C8U G21U G22A G30A C31U, for which the self-cleavage was determined as 0.02.

As for C8U A12C C18U U28G C31A, the self-cleavage was 0.04.

Regarding U9A G22A G29U, the self-cleavage came out at 0.17.

With C8U U9A C15A G19C C46G, the self-cleavage was found to be 0.19.

On to U9C A16C G17A U20A G30U, for which the self-cleavage worked out at 0.02.

C8U C23U G35U G44U: the self-cleavage was 0.06.

In the case of U9A C15A C18A, the self-cleavage came out at 0.15.

For U9A G30U U38A, the self-cleavage came to 0.19.

As to C8U A24C U43A C46A, the self-cleavage was found to be 0.04.

In the case of C8U C23U C31U, the self-cleavage amounted to 0.38.

Regarding U9A A11C G27C, the self-cleavage turned out to be 0.05.

In the case of U9A G21A G30A C45G, the self-cleavage was 0.24.

With C8U C18U U34G, the self-cleavage stood at 0.08.

As for U9A G17C G35C, the self-cleavage worked out at 0.08.

On to U9C A16U C42U U43G, for which the self-cleavage amounted to 0.02.

Regarding U9A U20G A26C G29A U34A C46A, the self-cleavage turned out to be 0.09.

Consider C8U C31A G40A, for which the self-cleavage came out at 0.01.

Turning to U9C C10U A24U G36A, the self-cleavage amounted to 0.05.

For the variant C8U A12U G17C U20C, the self-cleavage came to 0.06.

As to C8U A16C G17A G19A G29C, the self-cleavage came out at 0.07.

As to U9A G33C U34A, the self-cleavage came out at 0.04.

Regarding U9C A25C C46G, the self-cleavage stood at 0.02.

In the case of U9C A12C C15G, the self-cleavage was 0.

Take U9A C13U C31U: the self-cleavage is 0.03.

As to C8U C23U U34C, the self-cleavage is 0.15.

As for C8U G35C G44C, the self-cleavage was 0.09.

With U9A C10G A25U C31U U43C, the self-cleavage was found to be 0.02.

On to C8U C15U G33U U38G, for which the self-cleavage is 0.01.

As for C8U U32C A41C C46G, the self-cleavage was 0.12.

Consider U9A C10G A11C C31A G33A, for which the self-cleavage amounted to 0.01.

As for U9C A11G U28C, the self-cleavage was 0.01.

Take C8U G36U C42U: the self-cleavage was determined as 0.09.

Take U9C C13G G21U: the self-cleavage stood at 0.03.

For the variant U9A A16G A25G G36C, the self-cleavage was found to be 0.01.

Regarding U9C C10U C15A U38A, the self-cleavage amounted to 0.02.

For the variant U9A A12U G35C, the self-cleavage came to 0.03.

Take C8U U9G A16G G19A G29C: the self-cleavage was 0.01.

With C8U G30U A39G, the self-cleavage was found to be 0.03.

Regarding U9C A11U A12U C37A, the self-cleavage was 0.01.

As to C8U G36A A41G, the self-cleavage was 0.66.

For the variant C8U C10A A11C U28G, the self-cleavage was found to be 0.02.

Regarding U9A A11U C13G U20C G22C G44A, the self-cleavage came out at 0.02.

On to C8U U38G C42A, for which the self-cleavage worked out at 0.

For C8U U28C G35A C37U, the self-cleavage was determined as 0.02.

U9A C31U C42U: the self-cleavage came to 0.01.

U9A C23U G36A C45U: the self-cleavage came out at 0.82.

As to U9A A26G G40U G44U, the self-cleavage stood at 0.23.

As to C8U G22A A25C C37G, the self-cleavage was determined as 0.07.

For the variant U9A G30U U32A C37A, the self-cleavage worked out at 0.01.

Consider C8U G22U U38C, for which the self-cleavage is 0.21.

C8U U9G C10G G19A: the self-cleavage was 0.04.

For the variant C8U G21U G33A G35U, the self-cleavage turned out to be 0.07.

Regarding U9A A12G C13A C42U C46A, the self-cleavage was 0.04.

For C8U G19A G29C, the self-cleavage is 0.65.

In the case of U9A A12G C15G C31A G33C A39C C45G, the self-cleavage stood at 0.02.

With U9A C10U A14C G36U G40C A41C C42A, the self-cleavage turned out to be 0.02.

For the variant C8U U9C C15G A24U U38G A41G, the self-cleavage is 0.03.

Take C8U C31U C42A: the self-cleavage turned out to be 0.04.

For the variant U9C A11U C13U G21U C45A, the self-cleavage came to 0.

With U9C A16C C18A A24G G33C A41C, the self-cleavage is 0.02.

Regarding C8U U20G U28A, the self-cleavage stood at 0.13.

As for U9A C18A G27C G29C C37A, the self-cleavage came out at 0.18.

As to C8U C18G A25G U32A, the self-cleavage is 0.02.

As for C8U G21U U28C, the self-cleavage came to 0.03.

Take C8U C15G G21C G36U A39U: the self-cleavage worked out at 0.03.

On to C8U C18G U34C, for which the self-cleavage worked out at 0.06.

Take U9C A16C G35A G36A: the self-cleavage stood at 0.02.

On to U9C C10A U34C A41G, for which the self-cleavage turned out to be 0.

For the variant U9A A11C C13G G17C U34A, the self-cleavage amounted to 0.01.

Consider U9C A26G U43C, for which the self-cleavage turned out to be 0.04.

As for U9C A25U G44C, the self-cleavage came out at 0.02.

On to U9A C15A G33A, for which the self-cleavage was 0.15.

As to U9A A14C G17A C46A, the self-cleavage stood at 0.09.

On to U9C A12U C23G G40U, for which the self-cleavage turned out to be 0.01.

U9C A41G C42A: the self-cleavage stood at 0.01.

Turning to U9A G33A C45U, the self-cleavage was 0.13.

As to U9A A11C A12U A16C C23U, the self-cleavage was 0.

On to C8U G27U G35U, for which the self-cleavage stood at 0.02.

For U9A A12U U34C, the self-cleavage worked out at 0.04.

For U9A A39U G44U, the self-cleavage worked out at 0.16.

C8U C10A G44U: the self-cleavage is 0.04.

With C8U C13G G17A U20A, the self-cleavage was 0.06.

For the variant U9A A11G A12G A14C, the self-cleavage was determined as 0.02.

Take U9C C13G A16U G40A: the self-cleavage worked out at 0.01.

As for C8U C18A G40U, the self-cleavage is 0.1.

Turning to C8U G17C G21C, the self-cleavage is 0.32.

As for U9C A25G C37G C42U C45U, the self-cleavage is 0.02.

On to C8U A16G U32G G33A C46G, for which the self-cleavage came out at 0.05.

In the case of C8U A26U C45G, the self-cleavage stood at 0.2.

For U9C C10A U38C, the self-cleavage was found to be 0.01.

Take C8U A12U C13G: the self-cleavage came out at 0.04.

With C8U G21U G35U, the self-cleavage is 0.38.

As for U9C A11U G36C, the self-cleavage is 0.04.

For the variant U9A A16U C31U, the self-cleavage is 0.04.

As to U9A G17U A26U G27U G29A, the self-cleavage amounted to 0.03.

U9A C13A G21A G27U C46A: the self-cleavage worked out at 0.18.

As for C8U C10G G22C, the self-cleavage is 0.01.

In the case of U9A G21U U38A C45A, the self-cleavage worked out at 0.11.

As to C8U A26U C37G A41G, the self-cleavage was 0.07.

For U9C A11U A25C C45A, the self-cleavage amounted to 0.04.

For C8U U34G C46U, the self-cleavage stood at 0.08.

For C8U A16C A26U, the self-cleavage worked out at 0.38.

Turning to U9C C15A A16C C18U G29C C45U, the self-cleavage is 0.02.

Regarding C8U U34C A39C, the self-cleavage was determined as 0.03.

With U9A C10A G35A, the self-cleavage was 0.03.

C8U C13U A24U G33C G44U: the self-cleavage came to 0.25.

Regarding C8U C23U A26C, the self-cleavage was 0.11.

Take U9C C13G G17C G21U U32G: the self-cleavage was 0.01.

U9A G21A G35A: the self-cleavage was 0.06.

As to C8U C18U C23G A39C, the self-cleavage came out at 0.31.

For U9A A12U A16C G21A A25C, the self-cleavage came out at 0.02.

Turning to C8U C13U A25U C45A, the self-cleavage was found to be 0.37.

In the case of U9C C10A G17A G19U C46A, the self-cleavage is 0.03.

In the case of C8U G17A C18U, the self-cleavage is 0.07.

As to U9A G27C G40A C42U G44A C45A, the self-cleavage stood at 0.03.

As for U9A U34A G40U, the self-cleavage was found to be 0.04.

Regarding C8U C10G G19C G44A, the self-cleavage was 0.02.

For the variant U9C A25U G27C G40C U43G C46G, the self-cleavage came out at 0.01.

Take C8U A12U C42U: the self-cleavage was 0.58.

Consider U9C A11C C13U A25C U28G G40U C46U, for which the self-cleavage worked out at 0.

With C8U U20G G29U, the self-cleavage is 0.19.

Consider U9C A12U G29A, for which the self-cleavage was determined as 0.01.

For the variant C8U G33U U34A A41U G44U C46U, the self-cleavage amounted to 0.14.

Take U9A G29A C46A: the self-cleavage was found to be 0.17.

As to U9A G30A U34C, the self-cleavage stood at 0.18.

As for C8U G22U G29U C42A, the self-cleavage is 0.07.

C8U G21A G35U U38A: the self-cleavage stood at 0.47.

For U9C C15G A24U U28C, the self-cleavage turned out to be 0.02.

On to C8U G19U G22U, for which the self-cleavage is 0.03.

Take U9C C13A G40A C46U: the self-cleavage came to 0.

C8U C31A U34C G44C: the self-cleavage was 0.1.

For C8U C10A C46U, the self-cleavage was found to be 0.07.

On to C8U G17A U28A G36A, for which the self-cleavage amounted to 0.16.

Take U9C A12U A39C G40C C46U: the self-cleavage amounted to 0.02.

As for U9A C15G A26C G29A G30U C45U, the self-cleavage was found to be 0.05.

In the case of U9C A14U C15G U28G G36A, the self-cleavage came to 0.02.

As to C8U G21U G22U G27A G36U, the self-cleavage was 0.17.

As to U9A C13A U34C, the self-cleavage stood at 0.67.

As for U9A C13U U38A, the self-cleavage turned out to be 0.24.

Turning to U9A A11C A24U G35A, the self-cleavage was found to be 0.01.

Take U9C A11U G35U U38C: the self-cleavage came to 0.02.

As for C8U C10A C15G, the self-cleavage came to 0.05.

For the variant U9A A25U C42A, the self-cleavage amounted to 0.4.

In the case of C8U A14G G19C G22C U28G G35U, the self-cleavage was 0.05.

As for U9A G17U A24U C42G, the self-cleavage was 0.09.

Consider U9C A26G U28C C37G A41U, for which the self-cleavage came out at 0.01.

As to C8U U34A C42A, the self-cleavage amounted to 0.46.

In the case of C8U C15A A16U C42G G44A, the self-cleavage is 0.05.

Regarding U9A A41U C42G, the self-cleavage turned out to be 0.01.

For C8U C10U C31U, the self-cleavage amounted to 0.02.

For the variant C8U A26C U32C, the self-cleavage was determined as 0.04.

Regarding C8U G40C G44C C45A, the self-cleavage is 0.01.

In the case of U9A C10G G19U U20A A39U C42G, the self-cleavage amounted to 0.02.

Take U9C A25U A39U C42U: the self-cleavage worked out at 0.03.

For U9A A25G C45A, the self-cleavage turned out to be 0.3.

The values above are taken from the RNAGym collection of RNA variant scans (doi:10.7554/elife.90254).
